Laboratory results taken from the supplement of paper PMC11417369.
± gives the standard deviation of the averaged measurements. The list shows a part of the results.

system: PfAP2-G AP2 domain (GST-tagged); test: gcPBM binding intensity (ln(normalized median fluorescence intensity)); higher = stronger DNA binding
Outline: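 For binding intensity, the highest Masliner-normalised natural-log median intensity across replicate spots of either probe orientation was taken. Protein bound to the array was stained with Alexa488 anti-GST antibody and scanned at 488 nm. The protein, GST-tagged P. falciparum DNA-binding domains from E. coli at about 25 μg on average, had been applied for 1 h to an Agilent 4 × 180k array of primer-extended double-stranded 36-bp intergenic genomic probes and negative controls.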

Row | Sequence | gcPBM binding intensity (ln)
1 | ATGCTTATTATTTATTGTACTGAATAAATATATCTG [XGTACX_site4483] | 11 ± 0.65
2 | TATAAAAAATATAATTGTACATAAAGGTTAAAATGT [XGTACX_site6138] | 11 ± 0.54
3 | TTATTTCTACCTTTTTGTACACATTATTATGAAACC [XGTACX_site5325] | 11.3 ± 0.81
4 | CTCAATATATTTGATTTACACACTTACAATGTATAT [CACACA_site8982] | 10.04 ± 0.078
5 | AAGTGGCATATAAGTAAAAAATATATACAAGTATAT [GTGCAC_negctrl_site427] | 9.915 ± 0.021
6 | TATTAAAGATACTCGGTATAAATAAATTTTAATGTG [XGTACX_negctrl_site239] | 10.5 ± 0.47
7 | ATATAAAATAGACACGCACACAAAAAAAAAAAAAAA [CACACA_site3522] | 10.2 ± 0.64
8 | CTATAATATAGGTATACACACATATTATAGAATATT [CACACA_site7696] | 9.915 ± 0.049
9 | TATGTCAAAAAATAATGTACAAAAAAATTAACATAA [XGTACX_site5463] | 10.8 ± 0.4
10 | TATATATGGAAAAGGTGTACATTCAATATATATATA [XGTACX_site3167] | 11.4 ± 0.82
11 | TTTATTTTGTAGTGTACACATATATATATATATATA [CACACA_site5843] | 11.7 ± 0.96
12 | AAAATATTATTTTGTTGTACATATAAAATTTTAAGC [XGTACX_site1866] | 11.4 ± 0.86
13 | TACAAAATAAGACATGCATGTTATACATATATATTT [TGCATGCA_site321] | 9.89 ± 0.071
14 | TATATTTTTTTTCTAGTGCATATTATTAATTAAGTT | 10.04 ± 0.049
15 | TGAGTATTTTTTTAATGTACTTATATTAAAAGGAAA [XGTACX_site6286] | 11.2 ± 0.9
16 | AATATAAATTAATTTACACACTAAAAAATATTTATA [CACACA_site7728] | 10.01 ± 0.021
17 | ACATACTTTAATATATGTACATAAGAAAAAAAAAAA [XGTACX_site2991] | 11.5 ± 0.74
18 | TATACTAAAAAATACACATGCACATACAATATATAT [TGCATGCA_site1016] | 10 ± 0.13
19 | TATAAGAATGACAAGTGTACATATCAAATATATTAG [XGTACX_site7113] | 11.3 ± 0.83
20 | TATTTTTTATATTTATTTATTTAAAGGAGCTTTTCT [GTGCAC_negctrl_site293] | 9.585 ± 0.092
21 | TTTCTTTTTTTTTAATGTACTTTTTTTATAAAAGGT [XGTACX_site5688] | 11.5 ± 0.97
22 | TTTTTTCTTAAAATTTGTACATAGTGCAATTTTTTT [XGTACX_site5509] | 10.6 ± 0.45
23 | TCCTCTTCAATATATATATATTATAAATAAATAAAT [CACACA_negctrl_site1756] | 9.91 ± 0.38

Row | Sequence | gcPBM binding intensity (ln)
24 | ATTATTACACAACGTTGTACATTTCAATATTTTTAT [XGTACX_site5096] | 11.1 ± 0.61
25 | AAAATAATATATAATTGTACTTTTTTTTTATATATA [XGTACX_site6093] | 11.3 ± 0.86
26 | TTTTTTTATAGCTAAACACACATAAGAATATATGTT [CACACA_site1099] | 9.73 ± 0.13
27 | TGTACATATATATATATAATAATAGTTATGTTTATT [CACACA_negctrl_site1474] | 10.4 ± 0.35
28 | TATTAACACTTTATAGAAACAAAAAAATAAGCAAAA [XGTACX_negctrl_site295] | 9.9 ± 0.071
29 | TTTGAATTTTTTAACACACACATGTGTGGATATATA [CACACA_site6872] | 10.2 ± 0.33
30 | TTTTTAAAAAAGATAAGCGAAAGAATTAATTTTTAA [GTGCAC_negctrl_site197] | 9.99 ± 0.13
31 | TATGTATAAATATATGCACACATATATATATTTATA [CACACA_site9150] | 9.98 ± 0.3
32 | AAATTTATATAATATTGTACATTAAAAATTATATAT [XGTACX_site8009] | 11 ± 0.57
33 | TGGGTAATACATAATACACACATGTATATGTCGCAT [CACACA_site1125] | 9.995 ± 0.092
34 | AGTATATATACACAAGGGGAATACATATACAAAATT [TGCATGCA_negctrl_site244] | 9.98 ± 0.085
35 | TATATATATATAATGTGTACACAAATATATATTATA [XGTACX_site8786] | 11.7 ± 1.1
36 | AGGTAAAATATACATTGTACATATAATTAATTTATT [XGTACX_site626] | 10.9 ± 0.57
37 | AAGTTGTATATTGATTGTACTTGTTTAGGGTTATAG [XGTACX_site2953] | 11.2 ± 0.73
38 | ATATATATAATAAACACACACATATACATATATGTA [CACACA_site3462] | 9.97 ± 0.071
39 | TTTTTATATTTTATTATTTTTTTTATATAAAAAATT [CACACA_negctrl_site601] | 10.1 ± 0.19
40 | TTTATATATAAATAATGTACAAAAAATTTTAAAAAG [XGTACX_site7990] | 10.9 ± 0.41
41 | ATAAAAATATTTGAATGTACTTATAAGATATATATA [XGTACX_site4257] | 11.2 ± 0.73
42 | GTAAAACAGATTTACAGTACACATGTGTTATGTTTT [XGTACX_site2933] | 11.2 ± 0.82
43 | GTTCATAAATTAAACACACACACACGGCTGGATACC [CACACA_site7545] | 10.7 ± 0.54
44 | AGGTAGAAAAAAGACACACACATTAGATATTTATAT [CACACA_site6313] | 10.01 ± 0.071
45 | AAATCGTGCACGGACACATGCAGTAGCCGAGAATTA [TGCATGCA_site733] | 11.1 ± 0.75
46 | TGTTTATTTATTTGTGTGCACTCAGATTATATTATA [GTGCAC_site9510] | 10.5 ± 0.35

Row | Sequence | gcPBM binding intensity (ln)
47 | GATGTATTCATACATGCACACGTACATATTTAAATA [CACACA_site9299] | 11.4 ± 0.88
48 | TATTTTAATTTTTGTTGTACGCAAATGTGAGGGCAT [XGTACX_site4663] | 11.7 ± 1.2
49 | TAAACCAAAAAAAGTAGTACAAATATTATAAAAAAA [XGTACX_site8497] | 11.6 ± 0.74
50 | GTTCAAATTATTATGTGTACTAAAGAATATTTTAAA [XGTACX_site3166] | 11.2 ± 0.86
51 | AGGAAAAATAATTATTCACACAATAAATATATTTGA [CACACA_site5824] | 9.71 ± 0.18
52 | AATTAATTTATGTTACGTACATAAGTATTATATTTT [XGTACX_site388] | 11.5 ± 0.87
53 | TCTATTTTTTATATGGTGCATTGTTCTTATTAATAT [GTGCAC_site9392] | 10.3 ± 0.19
54 | CTTTATTTTTTATACACACACAATATGTATTTATAT [CACACA_site5879] | 10.21 ± 0.014
55 | AAAAACCTGAACTGTGCATGTCATACTTTTACTTTT [TGCATGCA_site73] | 9.91 ± 0.12
56 | TATATATGTGTATAGAGTACACGTTTTTTTTAATAT [XGTACX_site3128] | 11.4 ± 0.85
57 | TTGTACAAAAATAATGCACACTATATCAAGTTTTTT [CACACA_site5898] | 10.5 ± 0.24
58 | TTTATAAATTCTCTTTTTAAAAAATATTTTTATACT [CACACA_negctrl_site427] | 9.69 ± 0.37
59 | TAATCATTTTAGCTTACACACAAAATTTTGTTATAA [CACACA_site2939] | 9.875 ± 0.035
60 | AAAATAATTTTATAAGTGCAAAATAGCTTATTTATA | 9.87 ± 0.085
61 | TAAATACATCTATGCACACAAAAAAATATATATTTT [CACACA_site5027] | 10.2 ± 0.18
62 | TGTATAAACTTTACGTGTACATGAATAATCTATAAT [XGTACX_site3801] | 11.5 ± 0.86
63 | TATACGTATTACAGAGTGCAATAAACAGTATATATT | 10.3 ± 0.19
64 | TATGTGCATATAAACTCACACATTGTATATTACATG [CACACA_site6106] | 10.14 ± 0.035
65 | AAGGAAAAGTAAAGAAGTACTGTACCGCCAAAAAAA [XGTACX_site2607] | 11.5 ± 0.82
66 | TTGATGTTGGTAGGATGTACGGTACCGGTAGTATTT [XGTACX_site6642] | 11.4 ± 0.8
67 | AATTTATTTTTTTGATGTACATACAATTTATCACAA [XGTACX_site5936] | 11.4 ± 0.75
68 | AAAATAATAAAAAGGGGTACAAAGAAACAAATATAA [XGTACX_site296] | 11.6 ± 0.97
69 | TTTATTAAAATATTCTCACACACCAAAATATGTATG [CACACA_site932] | 9.9 ± 0.028

Row | Sequence | gcPBM binding intensity (ln)
70 | ATAAAATAACACAACGTTGACAAATTTGGATGACTC [XGTACX_negctrl_site324] | 10.09 ± 0.014
71 | ATATATGTAGATATATGTACATATATAGGTAGATAT [XGTACX_site7589] | 11.2 ± 0.72
72 | AAAAATTTATTTAAAAGTACATAAAATAAAGGTGGA [XGTACX_site7591] | 11.4 ± 0.69
73 | ACTTTAGAAATAGAGGTGCTATTTTTATTACCACAC | 10.3 ± 0.26
74 | ATTTTAGAATTTAATACACACAAAAAAAAAAAATTA [CACACA_site3704] | 10 ± 0.33
75 | TATTACATTATATAAACATGCAAAACTATATATTAT [TGCATGCA_site601] | 9.76 ± 0.13
76 | AAATGTAATATAAATAGTACATATTAAATAAAATTA [XGTACX_site6917] | 11.1 ± 0.88
77 | TTATAATATGTATACACACACATATATAGATATATA [CACACA_site7159] | 9.97 ± 0.071
78 | ATTCTTTATATGCATACACACCTAATATAGGGACCT [CACACA_site6830] | 10.27 ± 0.057
79 | GTACATAGGTATAGCACACACAAATGTAGGTATTTT [CACACA_site4049] | 10.8 ± 0.39
80 | TGCACAAAGTTATGCACACACCTAAAATTAATTTTT [CACACA_site7385] | 10.05 ± 0.071
81 | TATACACATATATACACACACATATATAAATAAATA [CACACA_site7579] | 10 ± 0.23
82 | ATTATATATAATATAGTGCATGTAAAAAATAAAACA | 10.2 ± 0.18
83 | AAAAAAAAAAAAAAAACACACATAAAAATATAATAA [CACACA_site3855] | 10.2 ± 0.27
84 | TATTTTATTTGTATATTCATTTGTATAATATAAATA [TGCATGCA_negctrl_site267] | 9.86 ± 0.12
85 | AAGAATATTATAAACACACACTTTATAAAGAATTAT [CACACA_site4241] | 9.99 ± 0.085
86 | TATATAATTGTCTTCACACACACATATATATATATA [CACACA_site2744] | 10.1 ± 0.28
87 | TTATATAACATTATTTGTACATATAAAATATGGATG [XGTACX_site8526] | 10.9 ± 0.62
88 | AAAAAAAATTTATGGGGTACATATTATAATATTATA [XGTACX_site3395] | 11.5 ± 0.95
89 | TTAAAATATGAATAATGTACAAGAAATTTTATTAAT [XGTACX_site6314] | 10.9 ± 0.43
